Binding signal data for 31 molecules are collected here from paper PMC9911399, “Two distinct binding modes provide the RNA-binding protein RbFox with extraordinary sequence specificity”.

B1: GUUGGCC (DNA:RNA)
RNA: GGGAGACCGGAAUUCAGAUUGUCCGUUGGCCUUAAAUCCCGUCGUAGCCACCA
DNA 1: CAATCTGAATTCCGGTCTCCC
DNA 2: TGGTGGCTACGACGGGATT
B2: CCAUAGG (DNA:RNA)
RNA: GGGAGACCGGAAUUCAGAUUGUCCCCAUAGGUUAAAUCCCGUCGUAGCCACCA
DNA 1: CAATCTGAATTCCGGTCTCCC
DNA 2: TGGTGGCTACGACGGGATT
B3: UUCUUUC (DNA:RNA)
RNA: B1 RNA with G25U, U27C, G28U, G29U, C30U
DNA 1: CAATCTGAATTCCGGTCTCCC
DNA 2: TGGTGGCTACGACGGGATT
B4: GUCUCGG (DNA:RNA)
RNA: B2 RNA with C25G, C26U, A27C, A29C
DNA 1: CAATCTGAATTCCGGTCTCCC
DNA 2: TGGTGGCTACGACGGGATT
B5: CUUCGCC (DNA:RNA)
RNA: B1 RNA with G25C, G28C
DNA 1: CAATCTGAATTCCGGTCTCCC
DNA 2: TGGTGGCTACGACGGGATT
B6: CGCCGUA (DNA:RNA)
RNA: B2 RNA with C26G, A27C, U28C, A29G, G30U, G31A
DNA 1: CAATCTGAATTCCGGTCTCCC
DNA 2: TGGTGGCTACGACGGGATT
B7: CUAGGCG (DNA:RNA)
RNA: B1 RNA with G25C, U27A, C31G
DNA 1: CAATCTGAATTCCGGTCTCCC
DNA 2: TGGTGGCTACGACGGGATT
B8: CGUUUAG (DNA:RNA)
RNA: B2 RNA with C26G, A27U, A29U, G30A
DNA 1: CAATCTGAATTCCGGTCTCCC
DNA 2: TGGTGGCTACGACGGGATT
B9: GUUGUCC (DNA:RNA)
RNA: B1 RNA with G29U
DNA 1: CAATCTGAATTCCGGTCTCCC
DNA 2: TGGTGGCTACGACGGGATT
B10: CCCACCA (DNA:RNA)
RNA: B2 RNA with A27C, U28A, A29C, G30C, G31A
DNA 1: CAATCTGAATTCCGGTCTCCC
DNA 2: TGGTGGCTACGACGGGATT
B11: AAUGCGU (DNA:RNA)
RNA: B1 RNA with G25A, U26A, G29C, C30G, C31U
DNA 1: CAATCTGAATTCCGGTCTCCC
DNA 2: TGGTGGCTACGACGGGATT
B12: GGAGGGG (DNA:RNA)
RNA: B2 RNA with C25G, C26G, U28G, A29G
DNA 1: CAATCTGAATTCCGGTCTCCC
DNA 2: TGGTGGCTACGACGGGATT
B13: GUGACCU (DNA:RNA)
RNA: B1 RNA with U27G, G28A, G29C, C31U
DNA 1: CAATCTGAATTCCGGTCTCCC
DNA 2: TGGTGGCTACGACGGGATT
B14: GGCCUAG (DNA:RNA)
RNA: B2 RNA with C25G, C26G, A27C, U28C, A29U, G30A
DNA 1: CAATCTGAATTCCGGTCTCCC
DNA 2: TGGTGGCTACGACGGGATT
B15: CGUGGUG (DNA:RNA)
RNA: B1 RNA with G25C, U26G, C30U, C31G
DNA 1: CAATCTGAATTCCGGTCTCCC
DNA 2: TGGTGGCTACGACGGGATT
B16: UUGAAGU (DNA:RNA)
RNA: B2 RNA with C25U, C26U, A27G, U28A, G31U
DNA 1: CAATCTGAATTCCGGTCTCCC
DNA 2: TGGTGGCTACGACGGGATT
B17: AAACCCA (DNA:RNA)
RNA: B2 RNA with C25A, C26A, U28C, A29C, G30C, G31A
DNA 1: CAATCTGAATTCCGGTCTCCC
DNA 2: TGGTGGCTACGACGGGATT
B18: CGACAUG (DNA:RNA)
RNA: B2 RNA with C26G, U28C, G30U
DNA 1: CAATCTGAATTCCGGTCTCCC
DNA 2: TGGTGGCTACGACGGGATT
B19: AAGAACG (DNA:RNA)
RNA: B2 RNA with C25A, C26A, A27G, U28A, G30C
DNA 1: CAATCTGAATTCCGGTCTCCC
DNA 2: TGGTGGCTACGACGGGATT
B20: AGAGGCA (DNA:RNA)
RNA: B1 RNA with G25A, U26G, U27A, C31A
DNA 1: CAATCTGAATTCCGGTCTCCC
DNA 2: TGGTGGCTACGACGGGATT
B21: AGUGGUA (DNA:RNA)
RNA: B1 RNA with G25A, U26G, C30U, C31A
DNA 1: CAATCTGAATTCCGGTCTCCC
DNA 2: TGGTGGCTACGACGGGATT
B22: CUAUCUG (DNA:RNA)
RNA: B2 RNA with C26U, A29C, G30U
DNA 1: CAATCTGAATTCCGGTCTCCC
DNA 2: TGGTGGCTACGACGGGATT
B23: CACAGAA (DNA:RNA)
RNA: B2 RNA with C26A, A27C, U28A, A29G, G30A, G31A
DNA 1: CAATCTGAATTCCGGTCTCCC
DNA 2: TGGTGGCTACGACGGGATT
B24: UCGGAUU (DNA:RNA)
RNA: B2 RNA with C25U, A27G, U28G, G30U, G31U
DNA 1: CAATCTGAATTCCGGTCTCCC
DNA 2: TGGTGGCTACGACGGGATT
B25: AAAUGAA (DNA:RNA)
RNA: B2 RNA with C25A, C26A, A29G, G30A, G31A
DNA 1: CAATCTGAATTCCGGTCTCCC
DNA 2: TGGTGGCTACGACGGGATT
B26: GGAGUGA (DNA:RNA)
RNA: B2 RNA with C25G, C26G, U28G, A29U, G31A
DNA 1: CAATCTGAATTCCGGTCTCCC
DNA 2: TGGTGGCTACGACGGGATT
B27: UAGGAAA (DNA:RNA)
RNA: B2 RNA with C25U, C26A, A27G, U28G, G30A, G31A
DNA 1: CAATCTGAATTCCGGTCTCCC
DNA 2: TGGTGGCTACGACGGGATT
B28: AAUAAAG (DNA:RNA)
RNA: B2 RNA with C25A, C26A, A27U, U28A, G30A
DNA 1: CAATCTGAATTCCGGTCTCCC
DNA 2: TGGTGGCTACGACGGGATT
B29: GAUGUGC (DNA:RNA)
RNA: B1 RNA with U26A, G29U, C30G
DNA 1: CAATCTGAATTCCGGTCTCCC
DNA 2: TGGTGGCTACGACGGGATT
B30: AUAGCUA (DNA:RNA)
RNA: B1 RNA with G25A, U27A, G29C, C30U, C31A
DNA 1: CAATCTGAATTCCGGTCTCCC
DNA 2: TGGTGGCTACGACGGGATT
B31: GCUUGUU (DNA:RNA)
RNA: B1 RNA with U26C, G28U, C30U, C31U
DNA 1: CAATCTGAATTCCGGTCTCCC
DNA 2: TGGTGGCTACGACGGGATT

Residue numbers refer to the chain shown, from its start. The list shows a part of the results.

The assay concerns the target T1, RBFOX1 RRM RbFoxmut (Fox-RRM*) (Homo sapiens, UniProt Q9NWB1 109-208, R118D;E147R;N151S;E152T).
T1 sequence: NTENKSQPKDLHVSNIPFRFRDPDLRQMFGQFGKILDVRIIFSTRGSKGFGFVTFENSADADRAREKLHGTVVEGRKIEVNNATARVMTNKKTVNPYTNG
As to the kind of experiment: EMSA; HiTS-Eq, 1 nM pool, 10 min; buffer printed only for the single-RNA assays: 10 mM Tris pH 7.5, 150 mM NaCl, 3.4 mM EDTA, 0.001% NP-40, 30 C. Particulars: tags: His6 N-terminal (pET28a); label: 5' 32P. The method, boiled down: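 These values rest on relative association constants, computed from read-count changes of each RNA species versus the control reaction and normalised to the cognate motif. Reads came from free RNA recovered by 8% native PAGE after purified RbFox RRM (wild type or mutant) at increasing concentrations was equilibrated for 10 min in 50 µL with 1 nM of a 5′-radiolabelled pool with 7 randomized nucleotides and DNA-annealed flanks.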
On to B1, for which the binding signal was 0.254 KA relative to UGCAUGU.
With B2 the figure was 0.0801 KA relative to UGCAUGU; with B3, 0.0436 KA relative to UGCAUGU.
In the case of B4, the binding signal was 0.0951 KA relative to UGCAUGU.
Regarding B5, the binding signal was 0.147 KA relative to UGCAUGU.
As for B6, the binding signal was 0.126 KA relative to UGCAUGU.
With B7 the figure was 0.113 KA relative to UGCAUGU.
The same measure for B8: 0.142 KA relative to UGCAUGU.
In the case of B9, the binding signal was 0.0969 KA relative to UGCAUGU.
The same measure for B10: 0.0516 KA relative to UGCAUGU; for B11: 0.115 KA relative to UGCAUGU; for B12: 0.0569 KA relative to UGCAUGU.
With B13 the figure was 0.087 KA relative to UGCAUGU.
The same measure for B14: 0.0853 KA relative to UGCAUGU; for B15: 0.18 KA relative to UGCAUGU.
On to B16, for which the binding signal was 0.112 KA relative to UGCAUGU.
With B17 the figure was 0.0806 KA relative to UGCAUGU; with B18, 0.0753 KA relative to UGCAUGU.
With B19, the binding signal is 0.166 KA relative to UGCAUGU.
With B20, the binding signal is 0.0893 KA relative to UGCAUGU.
Consider B21, for which the binding signal is 0.186 KA relative to UGCAUGU.
The same measure for B22: 0.0847 KA relative to UGCAUGU; for B23: 0.11 KA relative to UGCAUGU; for B24: 0.0694 KA relative to UGCAUGU.
With B25 the figure was 0.0872 KA relative to UGCAUGU; with B26, 0.126 KA relative to UGCAUGU; with B27, 0.0685 KA relative to UGCAUGU.
The same measure for B28: 0.0862 KA relative to UGCAUGU; for B29: 0.138 KA relative to UGCAUGU.
As for B30, the binding signal is 0.119 KA relative to UGCAUGU.
Take B31: the binding signal was 0.194 KA relative to UGCAUGU.
